The text below walks through data of the RNAGym collection of RNA variant scans (doi:10.7554/elife.90254).

B1: LINE1-full (parent)
chain: UACGUAGGUGGUUUUCCCCUGAUAGUGCUAAGGGGGCCUGGAAGUUUGGACUGGGCAGAGCUCAACACAGCGUGGCAAAGUGGCUGUGGCUAGACUGCCUCUCUGGAUUCCUCGUCACUCAGCAGGGCAUCUCUGAGAGAAAUGCC

The source gives no read counts; variants with many changes may rest on few reads.

The variants in this data set derive from B1. In words: self-cleavage, relative activity (ratio to wild type); higher = more cleavage; in vitro, sequencing; the parent is a self-cleaving ribozyme.
Take UACGUAGGUGGUUUUCCCCUGAUAGUGCUGAGGGGGCCUGGAAGUUUGGACUGGGCAGAGCCCAACACAGCGUGGCAAAGUGGCUGUGGCUAGACUGCCUCUCUGGAUUCCUCGUCACUCAGCAGGGCAUCUCUGAGAGGAAUGCC [A30G U62C A140G]: the self-cleavage is 0.42.

Turning to UACGUAGGCGGUUUUCCCCUGAUAGUGCUAAGGGGGCCUGGAAGUUCGGACUGGGCAGAGCUCAACACAGCGUGGCAAAGUGGCUGUGGCUAGACUGCCUCUCUGGAUUCCUCGUCACUCAGCAGGGCAUCUCUGAGUGAAAUGCC [U9C U47C A138U], the self-cleavage was found to be 0.85. As for UACGUAGGUGGUUUUCCCCUGAUAGUGCUAAGGGGGCCUGGUAGUUUGGACUGGGCAGAGCUCAACACAGCGUGGCAAAGUGGCUGUGGCCAGACUGCCUCUCUGGAUUCCCCGUCACUCAGCAGGGCAUCUCUGAGAGAAAUGCC [A42U U91C U112C], the figure is 0.36. As for UACGUGGGUGGUUUUCCCCUGAUAGUGCUAAGGGGGCCUGGAAGUUUGGACUGGGCAGAGCUCAACACAGCGUGGCAGAGUGGCUGUGGCUAGACUGCCUCUCUGGAUUCCUCGUCACUCGGCAGGGCUUCUCUGAGAGAAAUGCC [A6G A78G A121G A129U], the figure is 1.27; as for UACGUAGGUGGUUUCCCCCUGAUAGUGCUAAGGGGGCCUGGGAGUUUGGACUGGGCAGAGCUCAACACAGCGUGGCAAAGUGGCUGUGGCUAGACUGCCUCUCUGGAUUCCUCGUCACUCAGCAGGGCAUCUCUGAGAGAGAUGCC [U15C A42G A141G], 0.86; as for UGCGUAGGUGGUUUUCCCCUGAUAGUGCUAGGGGGGCCUGGAAGUUUGGACUGGGCAGAGCGCAACACAGCGUGGCAAAGUGGCUGUGGCUAGACUGCCUCUCUGGAUUCCUCGUCACUCAGCAGGGCAUCUCUGAGAGAAAUGCC [A2G A31G U62G], 0.82. As for CACGUAUGUGGUUUUCCCCUGAUAGUGCUAAGGGGGCCUGGAAGUUUGGACUGGGCAAAGCUCAACACAGCGUGGCAAAGUGGCUGUGGCUAGACUGCCUCUCUGGAUUCCUCGUCACUCUGCAGGGCAUCUCUGAGAGAGAUGCC [U1C G7U G58A A121U A141G], the figure is 0.05; as for UGCGUAGGUGGUUUUCCCCUGAUAGUGCUAAGGGGGCCUGGAAGUCUGGGCUGGGCAGAGCUCAACACAGCGUGGCAAAGUGGCUGUGGCUAGACUGCCUCUCUGGAUUCCUCGUCUCUCAGCAGGGCAUCUCUGAGAGAAAUGCC [A2G U46C A50G A117U], 0.35.

For UACGUAGGUGGUUUUCCCCAGAUAGUGCUAAGGGGGCCUGGAAGUUUGGACUGGGCAGUGCUCAACACAGCGUGGCAGAGUGGCUGUGGCUAGACUGCCUCUCUGGAUUCCUCGUCACUCAGCAGGGCAUCUCUGAGAGAAAUGCC [U20A A59U A78G], the self-cleavage amounted to 0.7. For UACGUAGGUGGUUUUCCCCUGUUAGUGCUAAGGGAGCCUGGAAGUUUGGACUGGGCAGAGCUCAACACAGCGUGGCAGAGUGGCUGUGGCUAGACUGCUUCUCUGGAUUCCCCGUCACUCAGCAGGGCAUCUCUGAGAGGGAUGCC [A22U G35A A78G C99U U112C A140G A141G] the value was 0.21; for UACGUAGGUGGUUUUCCCCUGAUAGUGCUAAGGGGGCCUGGAAGUUUGGACUGGGCAGAGCUCAACACAGCGUGGCAGAGUGGCUGAGGCUAGACUGCCUCUCUGGACUCCUCGUCACUCAGCAGGGCAUCUCUGAGAGAAAUGCC [A78G U87A U108C], 0.09; for UACGUAGGUGGUUUUCCCCUGAUGGUGCUAAGGGGGCCUGGAAGUUUGGACUGGGCAGAGCUCAUCACAGCGUGGCAAAGUGGCUGUGGCUAGACUGUCUCUCUGGAUUCCUCGUCACUCAGCAGGGCAUCUCUGAGAGAAAUGCC [A24G A65U C98U], 0.15.

Take UACGUAGGUGGUUUUCCCCUGAUAGUGCUAAGGGGGCCUGGAGGUUUGGACUGGGCAGAGCUCAACACAGCGUGGCAAAGAGGCUGUGGCUAGACUGCCUCUCUGGAUUCCUCGUCACUCAGCAGGGCAUCUCUGAGAGAAGUGCC [A43G U81A A142G]: the self-cleavage came out at 1.94. As for UACGUAGGUGGUUUUCCCCUGAUAGUGCUAAGGGGGCCUGGAAGUUUGGACUGGGCAGAGCUCAACACAGCGUGGCAAAGUGGCUGUGGCAAGUCUGCCUCUCUGGAUUCCUCGUCACUCAGCAGGGCAUCUCUGGGAGAAAUGCC [U91A A94U A136G], the figure is 0.18; as for UACGUAGGUGGUUUUCCCCUUAUAGUGCUAAGGGGGCCUGGAAGUUUGGACUGGGCAGAGCUCAACACAGCGUGCCAAAGUGGCUGUGGCUAGACUGCCUCUCUGAAUUCCUCGUCACUCAGCAGGGCAUCUCUGAGAGAAAUGCC [G21U G75C G106A], 0.17. For UACGUAGGUGGUUUUCCCCUGAUUGUGCUAAGGGGGCCUGAUAGUUUGGACUGGGCAGAGCUCAACACAGCGUGGCAAAGUGGCUGUGGCUAGACUGCCUCUCCGGAUUCCUCGUCACUCAGCAGGGCAUCUCUGAGAGAAAUGCC [A24U G41A A42U U104C] the value was 1.43. UACGUAGGUGGUUUUCCCCUGAUAGUGCUAAGGGGGCCAGGAAGUCUGGACUGGGCAGAGCUCAACACAGCGUGGCAAAGUGGCUGUGGCUAGACUGCCUCUCUGGAUUCCUCGUCACUCAGCAGGGUAUCCCUGAGAGAAGUGCC [U39A U46C C128U U132C A142G]: the self-cleavage worked out at 1.04. For UACGUAGGUGGUUUUCCCCUGAUAGUGCUAAGGGGGCCUGGAAGUUUGGACUGGGCAGAGCUCGACACAGCGUGGCAAAGUGGCUGUGGCUAGACUGCCUCUCUGGAUUCCUCGUCACUCGGCAGGGCAUCUCUGAGAGAGAUGCC [A64G A121G A141G] the value was 0.17; for UACGUAGGUGGUUUUCCCCUGAUAGAGCUAAGGGGGCCUGGAAGUUUGGACUGGGCAGAGCUCAGCACAGCGUGGCAAAGUGGCUGUGGCUAGACUGCCUCUCUGGAUUCCUCGUCACUCAGCAGGGCAUCUCCGAGAGAAAUGCC [U26A A65G U134C], 0.07.

As for UACGUAGGUGGUUUUCCCCUGAUAGUGCUUAGGGGGCCUGGAAGUUCGGACUGGGCAGAGCUCAACACAGCGCGGCAAAGUGGCUGUGGCUAGACUGCCUCUCUGGAUUCCUCGUCACUCAGCAGGGCAUCUCUGAGGGAAGUGCC [A30U U47C U73C A138G A142G], the self-cleavage amounted to 2.76.
